We go through 1 molecule from patent US20240026032A1 (Alexion, published 2024).

In this assay the target is T1, Human DLAT recombinant protein (ProSpec, Catalog # ENZ-082) (human, UniProt P10515 87-647, limits assumed).
T1 construct: also called DLAT antigen; Dihydrolipoamide Acetyltransferase
T1 sequence (looked up): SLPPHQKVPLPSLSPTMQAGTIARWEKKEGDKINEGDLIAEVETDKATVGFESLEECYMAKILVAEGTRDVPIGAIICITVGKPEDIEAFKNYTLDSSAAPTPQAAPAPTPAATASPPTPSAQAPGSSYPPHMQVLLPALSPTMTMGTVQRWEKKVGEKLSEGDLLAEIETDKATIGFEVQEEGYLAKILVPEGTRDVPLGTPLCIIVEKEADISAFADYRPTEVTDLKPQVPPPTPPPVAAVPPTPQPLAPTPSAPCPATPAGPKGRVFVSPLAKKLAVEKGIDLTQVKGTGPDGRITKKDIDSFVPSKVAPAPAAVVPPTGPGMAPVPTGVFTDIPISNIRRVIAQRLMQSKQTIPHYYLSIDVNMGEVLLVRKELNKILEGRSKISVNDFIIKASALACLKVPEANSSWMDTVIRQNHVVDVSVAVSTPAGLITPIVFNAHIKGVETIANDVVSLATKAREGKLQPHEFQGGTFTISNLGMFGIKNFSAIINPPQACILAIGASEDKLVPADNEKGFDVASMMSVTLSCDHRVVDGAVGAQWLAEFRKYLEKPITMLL
Kind of assay: BLI (Octet Red), PD-L1 Fc loaded on anti-human IgG Fc tips, DLAT as analyte. The procedure: Antibodies and antibody fusions were diluted to 16 μg/mL in PBS and loaded onto anti-human IgG Fc tips (ForteBio, Catalog # 18-5064). Human DLAT recombinant protein (ProSpec, Catalog # ENZ-082) was diluted into PBS to 10 μg/mL. […] Finally, a dissociation step in PBS was performed to determine dissociation from the bound antibodies.
For orientation: In BLI a coated tip is dipped into the sample, and binding shifts an interference pattern.

B1: Programmed Death Ligand 1 (PD-L1) Fc chimera (R&D Systems, Catalog # 156-B[…]) (Fc fusion)
chain: not shown
notes: Described as a dimeric protein having two PD-L1 proteins fused to a human Fc; also called PD-L1 Fc control; not shown: human Fc of the bought chimera
For the molecule B1, the binding result is reported as “no binding (tested: 10 µg/mL)”.
